# Source: article PMC4336329 (PLoS ONE, 2015)
# Screen size: about 310,000 compounds; about 2,200 (0.71%) showed an effect of 50% or more. Effects have a minus sign here. Some of the results follow.
# Biological target: human ether-à-go-go-related gene (hERG) potassium channel (human, UniProt Q12809)
# Experiment: primary screen, population patch clamp on CHO cells stably expressing hERG
# human ether-à-go-go-related gene (hERG) potassium channel, sequence (Q12809 whole entry, looked up): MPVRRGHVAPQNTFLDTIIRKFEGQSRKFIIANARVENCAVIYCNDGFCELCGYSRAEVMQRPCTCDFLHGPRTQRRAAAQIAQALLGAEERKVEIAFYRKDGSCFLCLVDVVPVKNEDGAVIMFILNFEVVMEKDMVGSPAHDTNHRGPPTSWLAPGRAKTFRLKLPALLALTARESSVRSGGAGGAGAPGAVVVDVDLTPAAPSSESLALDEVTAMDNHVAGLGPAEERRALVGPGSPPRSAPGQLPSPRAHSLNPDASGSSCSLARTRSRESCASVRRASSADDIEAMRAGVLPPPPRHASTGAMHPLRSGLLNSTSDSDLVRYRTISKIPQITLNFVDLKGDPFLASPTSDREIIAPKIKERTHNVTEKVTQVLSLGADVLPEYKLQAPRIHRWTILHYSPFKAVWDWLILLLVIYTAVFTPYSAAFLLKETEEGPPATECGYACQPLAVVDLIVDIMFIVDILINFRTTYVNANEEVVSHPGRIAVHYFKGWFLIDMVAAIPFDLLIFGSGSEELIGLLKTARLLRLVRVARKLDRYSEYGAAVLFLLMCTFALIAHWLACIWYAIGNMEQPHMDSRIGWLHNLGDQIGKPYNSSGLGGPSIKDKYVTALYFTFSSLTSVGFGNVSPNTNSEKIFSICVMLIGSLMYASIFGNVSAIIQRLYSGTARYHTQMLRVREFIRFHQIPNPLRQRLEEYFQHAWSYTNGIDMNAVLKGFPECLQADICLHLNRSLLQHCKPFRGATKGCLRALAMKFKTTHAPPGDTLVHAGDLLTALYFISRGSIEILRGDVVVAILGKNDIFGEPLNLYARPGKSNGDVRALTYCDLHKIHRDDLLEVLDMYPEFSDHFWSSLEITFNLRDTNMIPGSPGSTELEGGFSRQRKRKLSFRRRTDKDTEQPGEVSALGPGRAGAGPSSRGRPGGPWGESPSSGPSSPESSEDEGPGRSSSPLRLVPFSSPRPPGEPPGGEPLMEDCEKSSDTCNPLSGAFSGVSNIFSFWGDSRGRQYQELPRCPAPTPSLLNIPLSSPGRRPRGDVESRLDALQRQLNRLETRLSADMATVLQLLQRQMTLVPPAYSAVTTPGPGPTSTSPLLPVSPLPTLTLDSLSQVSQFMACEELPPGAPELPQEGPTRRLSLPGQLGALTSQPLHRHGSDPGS
row,Compound,"hERG current change (%, negative = inhibition) at 1uM"
1,O=C(NNC(=O)c1cccnc1)NC12CC3CC(CC(C3)C1)C2,7.44%
2,CS(=O)(=O)N1CCc2cc(S(=O)(=O)N3CCCCC3)ccc21,3.18%
3,COc1ccccc1OCC(=O)NNC(=O)c1cnccn1,13.5%
4,CCOc1ccc(NC(=O)C2CC(=O)N(c3ccc4c(c3)OCCO4)C2)cc1OCC (stereo not drawn),-0.168%
5,CCCCOC(=O)CNc1nnc(SCC(=O)OCC)[nH]c1=O,17.9%
6,Cc1ccccc1CSc1nnc(-c2ccco2)n1Cc1ccco1,-26.4%
7,O=P(C(=NCCO)NO)(N1CCOCC1)N1CCOCC1,11.3%
8,CN(C)C(=O)c1cccn(Cc2ccc(C(F)(F)F)cc2)c1=O,11.4%
9,Cc1cc(N2CCN(S(=O)(=O)c3ccccc3)CC2)c2ccccc2n1,-78.6%
10,O=C(Oc1ccc(-n2cnnn2)cc1)c1ccccc1,9.59%
11,Cc1nn(CCCC(=O)NCc2ccco2)c(=O)c2nn(-c3ccccc3)c(C)c12,15.8%
12,CC1Cc2ccccc2N1c1nc(C2CC2)nc2c1nnn2Cc1ccccc1 (stereo not drawn),15%
13,CCSc1nc2ccccc2n1CC(=O)N1CCOCC1,6%
14,O=C(NNc1ccc([N+](=O)[O-])cc1)C12CC3CC(CC(C3)C1)C2,18.2%
15,CCc1cccc(OCC(=O)Nc2ccc(C(=O)O)cc2NC(=O)COc2cccc(CC)c2)c1,23.3%
16,Cc1ccc(C(c2sc3nc(C)nn3c2O)N2CC(C)OC(C)C2)cc1 (stereo not drawn),14.5%
17,COc1ccccc1CCNC(=O)CSc1ccc(-c2ccco2)nn1,5.98%
18,CC1Oc2cc3c(-c4c(O)cc(O)c5c(O)c6c(cc45)OC(C)C(C)C6=O)c(O)cc(O)c3c(O)c2C(=O)C1C (stereo not drawn),9.75%
19,Clc1nnc(NN=C2CCCC2)c2ccccc12,9.68%
20,CCn1nc(C)cc1C(=O)N1CCCC(C(=O)c2ccccc2SC)C1 (stereo not drawn),9.34%
21,COc1cccc(CNS(=O)(=O)c2cc(-c3cc(C)no3)ccc2C(C)C)c1,3.85%
22,CCOc1ccc(Nc2nc(Cc3nnc(SCC(=O)c4ccc(C)cc4)o3)cs2)cc1,2.59%
23,O=c1[nH]c(CN2CC=C(c3ccccc3)CC2)nc2scc(-c3ccccc3)c12,7.46%
24,COc1ccc2nc(NC(=O)CCc3ccc(OC)c(OC)c3)sc2c1,11.4%
